Experimental data: the supplement of paper PMC10126150
Values marked as one replicate rest on one cluster of the flow cell; about a third of the high ones do not repeat.

Test system: ATP
Test: switch fluorescence ratio, 500 uM ATP over buffer (Cy3 cluster intensity, sum of 5 cycles each) (fold (ratio)); higher = stronger signal-on switching upon ATP binding; sequences stand for … in TCGTCGGCAGCGTCAGATGTGTATAAGAGACAGTTTTTTTTTTTTTTTTTTTTTTTTT…TC
Conditions: aptamer strand: ATP DNA aptamer (quencher-CACCTGGGGGAGTATTGCGGAGGAAGG + anchor), 100 nM annealed; ATP concentration: 500 uM; one replicate
Method in brief: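 Clusters carrying Cy3-labelled switching strands on a modified Illumina MiSeq flow-cell were annealed to 100 nM quencher-labelled ATP aptamer and imaged in selection buffer. They were imaged again after 15 min with 500 uM ATP at 22 °C, over five buffer/ATP cycles with NaOH stripping and re-annealing in between. For each cluster, the fluorescence ratio is the summed Cy3 intensity of the target cycles divided by that of the buffer cycles, averaged per switch-domain sequence. Clusters outside 100-1000 RFU were left out.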
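Further: ATP exposure 15 min at 22 °C before imaging.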

With ATAGCGGTG the switch fluorescence ratio was 0.952.

Work on TATGTGCTAA yielded a switch fluorescence ratio of 1.04.

Work on TGTATATAAG yielded a switch fluorescence ratio of 0.995.

TGTTTGGC was tested, and the switch fluorescence ratio was 0.889.

In the case of CCCTGAACTT, the switch fluorescence ratio is reported as 1.07.

Sequence TAGTCTTCCA has a switch fluorescence ratio of 1.

For CGGAGTCCAC, the switch fluorescence ratio was 1.09.

ATTTGGTACA showed a switch fluorescence ratio of 0.989.

GGTCAAGCGC showed a switch fluorescence ratio of 1.

Work on GAGTGACGA yielded a switch fluorescence ratio of 0.955.

Work on TGGGCCATTC yielded a switch fluorescence ratio of 1.01.

TGATTATCCG was tested, and the switch fluorescence ratio was 0.963.

CGATTCACCC was tested, and the switch fluorescence ratio was 1.02.

Work on TCGCGCGAAT yielded a switch fluorescence ratio of 1.01.

AACGGTTAAG gave a switch fluorescence ratio of 1.02.

AGACCCGTCG was tested, and the switch fluorescence ratio was 0.992.

Sequence TAAGTGTAAG has a switch fluorescence ratio of 0.959.

Work on AGATGCTGTT yielded a switch fluorescence ratio of 1.02.

GTTTGGTGGC showed a switch fluorescence ratio of 0.993.

GGTGGCTTGA showed a switch fluorescence ratio of 0.966.

For GGGATCGGAT, the switch fluorescence ratio was 0.985.

Work on CCACCGTAGA yielded a switch fluorescence ratio of 2.37.

For GCGTCCTAAG, the switch fluorescence ratio was 1.

GGAAGCAGTC gave a switch fluorescence ratio of 1.03.

AGTTTTGTGA gave a switch fluorescence ratio of 1.01.

With GCAGTCCTCT the switch fluorescence ratio was 0.975.

Work on ACGGGAAACA yielded a switch fluorescence ratio of 1.02.

For AAGTACTCTG, the switch fluorescence ratio was 1.13.

In the case of TGTCCTTTTT, the switch fluorescence ratio is reported as 0.972.

For CGGATGGTTT, the switch fluorescence ratio was 1.42.

For TGTAGGTTGG, the switch fluorescence ratio was 1.07.

TCTAGGCTAT was tested, and the switch fluorescence ratio was 1.

In the case of GTTTTAATGT, the switch fluorescence ratio is reported as 0.995.

In the case of TTATGCTAGA, the switch fluorescence ratio is reported as 1.05.

With GTGCTAGAAT the switch fluorescence ratio was 0.983.

Work on CAACCCCGTA yielded a switch fluorescence ratio of 1.02.

ATAGATCAAG was tested, and the switch fluorescence ratio was 1.02.

With CGCCAGAGTA the switch fluorescence ratio was 0.983.

GTTGTCGG showed a switch fluorescence ratio of 0.962.

With AACCGCCCTA the switch fluorescence ratio was 1.32.

For AGTAGAATGC, the switch fluorescence ratio was 1.07.

GTATATCAGT gave a switch fluorescence ratio of 1.04.

AGTCATCCTT was tested, and the switch fluorescence ratio was 1.07.

TTCGAGCTGC gave a switch fluorescence ratio of 0.984.

For GCGTCTGAGT, the switch fluorescence ratio was 1.01.

Sequence AAAAGCGTTT has a switch fluorescence ratio of 1.06.

CGAGGACCAC showed a switch fluorescence ratio of 1.02.

TGAACGCCTC showed a switch fluorescence ratio of 1.31.

In the case of GCGCACAGGT, the switch fluorescence ratio is reported as 1.41.

CTCACTTGCG was tested, and the switch fluorescence ratio was 1.01.

Work on GTCAATTTA yielded a switch fluorescence ratio of 1.

In the case of ATAAGTCGGC, the switch fluorescence ratio is reported as 0.958.

CACGGCGGTG was tested, and the switch fluorescence ratio was 0.992.

For TGCATGCTCT, the switch fluorescence ratio was 1.

With AGAGCTGGTG the switch fluorescence ratio was 1.05.

GGCTGTTCGA was tested, and the switch fluorescence ratio was 0.995.

In the case of CGTAAAATA, the switch fluorescence ratio is reported as 1.01.

AAAAGTCGTG was tested, and the switch fluorescence ratio was 0.956.

Work on GTATCAGGTG yielded a switch fluorescence ratio of 2.67.

For TGGATTT, the switch fluorescence ratio was 1.01.

With CTGTTACGAT the switch fluorescence ratio was 1.01.

In the case of ATCCCCCGGT, the switch fluorescence ratio is reported as 2.51.

Sequence TGAACTACTT has a switch fluorescence ratio of 1.02.

CATTCCTCGT gave a switch fluorescence ratio of 1.44.

TAAGGACAG was tested, and the switch fluorescence ratio was 0.994.

Sequence AAAGTTTACT has a switch fluorescence ratio of 1.14.

TTTGGACTTA showed a switch fluorescence ratio of 0.971.

ATTATTGTG showed a switch fluorescence ratio of 1.05.

For GGCCGCACGA, the switch fluorescence ratio was 1.23.

TGGGCATCTT showed a switch fluorescence ratio of 1.03.

GAGGTAAGTT gave a switch fluorescence ratio of 1.07.

Work on AGCGATTTAC yielded a switch fluorescence ratio of 1.46.

CCCAGGTTTT showed a switch fluorescence ratio of 2.

For CTGTTGAAC, the switch fluorescence ratio was 1.03.

AGTGACGAGC was tested, and the switch fluorescence ratio was 1.02.

In the case of TCTCACAGTC, the switch fluorescence ratio is reported as 1.02.

Sequence GTTGGTCTAA has a switch fluorescence ratio of 1.04.

In the case of ACGAATACGT, the switch fluorescence ratio is reported as 1.07.

Sequence GGAATGGCGG has a switch fluorescence ratio of 0.985.

CTGCTGAGAG showed a switch fluorescence ratio of 0.964.

AGTCCTTTGG was tested, and the switch fluorescence ratio was 0.988.

GCTCTATTAA was tested, and the switch fluorescence ratio was 1.05.

Sequence TTTGTCGTCT has a switch fluorescence ratio of 1.02.

ATACATATCG was tested, and the switch fluorescence ratio was 1.13.

GAGATACCGA was tested, and the switch fluorescence ratio was 1.05.

Sequence AACCGCGCAA has a switch fluorescence ratio of 2.88.

ACCCCCACAC showed a switch fluorescence ratio of 1.48.

AATTATAGGG showed a switch fluorescence ratio of 0.968.

Work on TAAATGGGAA yielded a switch fluorescence ratio of 1.02.

Sequence GGGCCGAGAT has a switch fluorescence ratio of 0.998.

With CCACCGGAAG the switch fluorescence ratio was 1.27.

For TCTTATTTCC, the switch fluorescence ratio was 0.952.

GATCCGTGGC showed a switch fluorescence ratio of 1.14.

With CGTGGAAAGC the switch fluorescence ratio was 1.01.

In the case of CAGTACGGC, the switch fluorescence ratio is reported as 1.07.

TATGGTGTTA gave a switch fluorescence ratio of 0.989.

With GGTTGATGCG the switch fluorescence ratio was 0.981.

TCAATGTGCT was tested, and the switch fluorescence ratio was 0.986.

Work on ATCAA yielded a switch fluorescence ratio of 1.01.

Work on TTTCGGTAGC yielded a switch fluorescence ratio of 0.993.

In the case of ACTGATATTA, the switch fluorescence ratio is reported as 0.977.

In the case of CAGTGCGGTA, the switch fluorescence ratio is reported as 0.996.

For GCGATTCGGT, the switch fluorescence ratio was 1.01.

In the case of ACTAACTGCT, the switch fluorescence ratio is reported as 1.07.

CTACTCCTCA gave a switch fluorescence ratio of 1.14.

CTCCACTTGT gave a switch fluorescence ratio of 1.05.

CAGGCCAGAT was tested, and the switch fluorescence ratio was 0.982.

TCATACGGTG showed a switch fluorescence ratio of 1.04.

With TGAGGAACTC the switch fluorescence ratio was 1.01.

GCTGAGCGGT showed a switch fluorescence ratio of 1.05.

With TGCATACCAG the switch fluorescence ratio was 1.05.

GGAAAGGGAA showed a switch fluorescence ratio of 1.07.

Sequence CGTATATCAG has a switch fluorescence ratio of 0.971.

For GCGATTTGTT, the switch fluorescence ratio was 1.

Sequence CTAAGGATTT has a switch fluorescence ratio of 1.03.

Work on ATTCTCGGAG yielded a switch fluorescence ratio of 0.971.

Sequence GAATTCTCTC has a switch fluorescence ratio of 0.997.

In the case of TAGGTATTCG, the switch fluorescence ratio is reported as 1.07.

Sequence AGGTAATATC has a switch fluorescence ratio of 1.09.

In the case of AGGATGT, the switch fluorescence ratio is reported as 0.97.

TTAACAATGG showed a switch fluorescence ratio of 1.01.

Work on TATTCATGAC yielded a switch fluorescence ratio of 1.03.

Sequence GTTACGGTAA has a switch fluorescence ratio of 1.1.

Sequence ATGGATGTG has a switch fluorescence ratio of 1.

TGTACACTTT showed a switch fluorescence ratio of 1.02.

For GGGTCCCA, the switch fluorescence ratio was 0.952.

For TATTAGTATA, the switch fluorescence ratio was 0.969.

GGTGGAGTGT showed a switch fluorescence ratio of 1.02.

For TCGGTGAATA, the switch fluorescence ratio was 0.968.

For TGGGTCACAT, the switch fluorescence ratio was 1.02.

For GTGATATGCT, the switch fluorescence ratio was 0.969.

ATGCAGTCTT showed a switch fluorescence ratio of 0.953.

For ACCGCTCCTT, the switch fluorescence ratio was 1.07.

In the case of TGAATAAGTA, the switch fluorescence ratio is reported as 0.982.

For GCTGATTTTA, the switch fluorescence ratio was 1.01.

Work on CCTAGGCGGG yielded a switch fluorescence ratio of 0.989.

In the case of CGGTGTGCAT, the switch fluorescence ratio is reported as 0.984.

GTACTTGTTA gave a switch fluorescence ratio of 0.997.

With TTTGATTTGA the switch fluorescence ratio was 0.92.

In the case of CAGATTGGCG, the switch fluorescence ratio is reported as 1.12.

With GACCTGTTTA the switch fluorescence ratio was 0.982.

For TAATGGCTGG, the switch fluorescence ratio was 1.01.

TTCCTGGCGA was tested, and the switch fluorescence ratio was 1.03.

For CCGCTTTATC, the switch fluorescence ratio was 2.47.

In the case of TAATCAGATG, the switch fluorescence ratio is reported as 0.98.

With AAACTAAA the switch fluorescence ratio was 0.969.

Work on GCGGTCAGGT yielded a switch fluorescence ratio of 0.963.

With GTGGGACCCA the switch fluorescence ratio was 0.967.

In the case of AATTGACATA, the switch fluorescence ratio is reported as 1.05.

Work on TTTCGAGTCT yielded a switch fluorescence ratio of 0.974.

For AGTGCTGCC, the switch fluorescence ratio was 1.01.

In the case of GGAGCCCTGG, the switch fluorescence ratio is reported as 1.

In the case of TACTATAATA, the switch fluorescence ratio is reported as 1.01.

ACGGGAAGTC gave a switch fluorescence ratio of 1.1.

For GTCGCCGCCT, the switch fluorescence ratio was 1.

For ACTTGCATTT, the switch fluorescence ratio was 0.996.

For CACGGCTCTA, the switch fluorescence ratio was 1.07.

Sequence GCAAGTCACT has a switch fluorescence ratio of 1.05.
